# The list shows a part of the results.
# B1: rAAL-I144G (Agrocybe aegerita), Q6WY08 (protein)
# chain: MQGVNIYNISAGTSVDLAAPVTTGDIVTFFSSALNLNAGAGNPNNTTLNLFAENGAYLLHIAFRLQENVIIFNSRQPDGPWLVEQRVSDVANQFAGIDGKAMVTVFDHGDKYQVVINEKTVIQYTKQISGLTLSLSYNATEETSGFSTVVEAVTYTGLALEHHHHHH
# What was measured:
# Test in all cases: glycan array binding signal (z-score within array); higher = stronger binding
# Settings in all cases: glycan notation: IUPAC condensed, linker removed; mutation: I144G
# Gal(a1-6)Glc = target: Gal(a1-6)Glc
# Summary of the method: (§1)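 Glycan array data came from 3228 arrays in the Consortium for Functional Glycomics database, and only arrays with an available protein sequence were kept. Glycan names were put into IUPAC-condensed notation, and columns mapping to the same glycan were averaged. The binding signal is a within-array Z-score, averaged across arrays of one protein sequence run at different concentrations or buffers and across linkers. A negative Z-score can be read as non-binding.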
# Gal(b1-2)Gal = target: Gal(b1-2)Gal
# Summary of the method: as §1
# Gal(b1-3)Gal = target: Gal(b1-3)Gal
# Summary of the method: as §1
# Gal(b1-3)Gal(b1-4)GlcNAc = target: Gal(b1-3)Gal(b1-4)GlcNAc
# Summary of the method: as §1
# Gal(b1-3)GalNAc = target: Gal(b1-3)GalNAc
# Summary of the method: as §1
# [1] = target: Gal(b1-3)GalNAc(a1-3)[Fuc(a1-2)]Gal(b1-4)Glc
# Summary of the method: as §1
# [2] = target: Gal(b1-3)GalNAc(a1-3)[Fuc(a1-2)]Gal(b1-4)GlcNAc
# Summary of the method: as §1
# Gal(b1-3)GalNAc(b1-3)Gal = target: Gal(b1-3)GalNAc(b1-3)Gal
# Summary of the method: as §1
# [3] = target: Gal(b1-3)GalNAc(b1-3)Gal(a1-4)Gal(b1-4)Glc
# Summary of the method: as §1
# [4] = target: Gal(b1-3)GalNAc(b1-4)Gal(b1-4)Glc
# Summary of the method: as §1
# [5] = target: Gal(b1-3)GalNAc(b1-4)[Neu5Ac(a2-3)]Gal(b1-4)Glc
# Summary of the method: as §1
# Gal(b1-3)GlcNAc = target: Gal(b1-3)GlcNAc
# Summary of the method: as §1
# [6] = target: Gal(b1-3)GlcNAc(a1-3)Gal(b1-4)GlcNAc
# Summary of the method: as §1
# [7] = target: Gal(b1-3)GlcNAc(a1-6)Gal(b1-4)GlcNAc
# Summary of the method: as §1
# Gal(b1-3)GlcNAc(b1-2)Man = target: Gal(b1-3)GlcNAc(b1-2)Man
# Summary of the method: as §1
# [8] = target: Gal(b1-3)GlcNAc(b1-2)Man(a1-3)[Gal(b1-3)GlcNAc(b1-2)Man(a1-6)]Man(b1-4)GlcNAc(b1-4)GlcNAc
# Summary of the method: as §1
# [9] = target: Gal(b1-3)GlcNAc(b1-2)Man(a1-3)[Gal(b1-3)GlcNAc(b1-2)Man(a1-6)]Man(b1-4)GlcNAc(b1-4)[Fuc(a1-6)]GlcNAc
# Summary of the method: as §1
# [10] = target: Gal(b1-3)GlcNAc(b1-2)Man(a1-3)[GlcNAc(b1-4)][Gal(b1-3)GlcNAc(b1-2)Man(a1-6)]Man(b1-4)GlcNAc(b1-4)GlcNAc
# Summary of the method: as §1
# [11] = target: Gal(b1-3)GlcNAc(b1-2)[Gal(b1-3)GlcNAc(b1-6)]Man(a1-6)[Gal(b1-3)GlcNAc(b1-2)Man(a1-3)]Man(b1-4)GlcNAc(b1-4)GlcNAc
# Summary of the method: as §1
# [12] = target: Gal(b1-3)GlcNAc(b1-3)Gal(b1-3)GlcNAc
# Summary of the method: as §1
# [13] = target: Gal(b1-3)GlcNAc(b1-3)Gal(b1-4)Glc
# Summary of the method: as §1
# [14] = target: Gal(b1-3)GlcNAc(b1-3)Gal(b1-4)GlcNAc
# Summary of the method: as §1
# [15] = target: Gal(b1-3)GlcNAc(b1-3)Gal(b1-4)GlcNAc(b1-2)Man(a1-3)[Gal(b1-3)GlcNAc(b1-3)Gal(b1-4)GlcNAc(b1-2)Man(a1-6)]Man(b1-4)GlcNAc(b1-4)GlcNAc
# Summary of the method: as §1
# [16] = target: Gal(b1-3)GlcNAc(b1-3)Gal(b1-4)GlcNAc(b1-2)[Gal(b1-3)GlcNAc(b1-3)Gal(b1-4)GlcNAc(b1-6)]Man(a1-6)[Gal(b1-3)GlcNAc(b1-3)Gal(b1-4)GlcNAc(b1-2)Man(a1-3)]Man(b1-4)GlcNAc(b1-4)[Fuc(a1-6)]GlcNAc
# Summary of the method: as §1
# [17] = target: Gal(b1-3)GlcNAc(b1-3)Gal(b1-4)GlcNAc(b1-3)Gal(b1-4)GlcNAc(b1-2)[Gal(b1-3)GlcNAc(b1-3)Gal(b1-4)GlcNAc(b1-3)Gal(b1-4)GlcNAc(b1-6)]Man(a1-6)[Gal(b1-3)GlcNAc(b1-3)Gal(b1-4)GlcNAc(b1-3)Gal(b1-4)GlcNAc(b1-2)Man(a1-3)]Man(b1-4)GlcNAc(b1-4)[Fuc(a1-6)]GlcNAc
# Summary of the method: as §1
# [18] = target: Gal(b1-3)GlcNAc(b1-3)Gal(b1-4)GlcNAc(b1-6)[Gal(b1-3)GlcNAc(b1-3)]Gal(b1-4)Glc
# Summary of the method: as §1
# [19] = target: Gal(b1-3)GlcNAc(b1-3)Gal(b1-4)[Fuc(a1-3)]GlcNAc
# Summary of the method: as §1
# [20] = target: Gal(b1-3)GlcNAc(b1-3)Gal(b1-4)[Fuc(a1-3)]GlcNAc(b1-6)[Gal(b1-3)GlcNAc(b1-3)]Gal(b1-4)Glc
# Summary of the method: as §1
# [21] = target: Gal(b1-3)GlcNAc(b1-3)GalNAc
# Summary of the method: as §1
# [22] = target: Gal(b1-3)GlcNAc(b1-6)Gal(b1-4)GlcNAc
# Summary of the method: as §1
# [23] = target: Gal(b1-3)GlcNAc(b1-6)GalNAc
# Summary of the method: as §1
# [24] = target: Gal(b1-3)GlcNAc(b1-6)[Gal(b1-3)]GalNAc
# Summary of the method: as §1
# Gal(b1-3)GlcNAc6S = target: Gal(b1-3)GlcNAc6S
# Summary of the method: as §1
# [25] = target: Gal(b1-3)[Fuc(a1-4)]GlcNAc
# Summary of the method: as §1
# [26] = target: Gal(b1-3)[Fuc(a1-4)]GlcNAc(b1-2)Man
# Summary of the method: as §1
# [27] = target: Gal(b1-3)[Fuc(a1-4)]GlcNAc(b1-2)Man(a1-3)[Gal(b1-3)[Fuc(a1-4)]GlcNAc(b1-2)Man(a1-6)]Man(b1-4)GlcNAc(b1-4)[Fuc(a1-6)]GlcNAc
# Summary of the method: as §1
# [28] = target: Gal(b1-3)[Fuc(a1-4)]GlcNAc(b1-3)Gal(b1-3)[Fuc(a1-4)]GlcNAc
# Summary of the method: as §1
# [29] = target: Gal(b1-3)[Fuc(a1-4)]GlcNAc(b1-3)Gal(b1-4)[Fuc(a1-3)]GlcNAc
# Summary of the method: as §1
# [30] = target: Gal(b1-3)[Fuc(a1-4)]GlcNAc(b1-6)GalNAc
# Summary of the method: as §1
# [31] = target: Gal(b1-3)[GlcNAc(b1-6)]GalNAc
# Summary of the method: as §1
# [32] = target: Gal(b1-3)[Neu5Ac(a2-6)]GalNAc
# Summary of the method: as §1
# [33] = target: Gal(b1-3)[Neu5Ac(a2-6)]GlcNAc(b1-4)Gal(b1-4)Glc
# Summary of the method: as §1
# [34] = target: Gal(b1-3)[Neu5Ac(b2-6)]GalNAc
# Summary of the method: as §1
# Gal(b1-4)Gal = target: Gal(b1-4)Gal
# Summary of the method: as §1
# [35] = target: Gal(b1-4)GalNAc(a1-3)[Fuc(a1-2)]Gal(b1-4)GlcNAc
# Summary of the method: as §1
binder,measurement,setting,value
B1,glycan array binding signal (z-score),Gal(a1-6)Glc,-0.082
same,glycan array binding signal (z-score),Gal(b1-2)Gal,-0.179
same,glycan array binding signal (z-score),Gal(b1-3)Gal,-0.093
same,glycan array binding signal (z-score),Gal(b1-3)Gal(b1-4)GlcNAc,-0.134
same,glycan array binding signal (z-score),Gal(b1-3)GalNAc,-0.118
same,glycan array binding signal (z-score),[1],-0.124
same,glycan array binding signal (z-score),[2],-0.048
same,glycan array binding signal (z-score),Gal(b1-3)GalNAc(b1-3)Gal,-0.186
same,glycan array binding signal (z-score),[3],-0.06
same,glycan array binding signal (z-score),[4],-0.073
same,glycan array binding signal (z-score),[5],-0.191
same,glycan array binding signal (z-score),Gal(b1-3)GlcNAc,-0.138
same,glycan array binding signal (z-score),[6],-0.111
same,glycan array binding signal (z-score),[7],-0.037
same,glycan array binding signal (z-score),Gal(b1-3)GlcNAc(b1-2)Man,0.005
same,glycan array binding signal (z-score),[8],-0.007
same,glycan array binding signal (z-score),[9],-0.087
same,glycan array binding signal (z-score),[10],-0.122
same,glycan array binding signal (z-score),[11],-0.06
same,glycan array binding signal (z-score),[12],-0.196
same,glycan array binding signal (z-score),[13],-0.159
same,glycan array binding signal (z-score),[14],-0.146
same,glycan array binding signal (z-score),[15],-0.127
same,glycan array binding signal (z-score),[16],0.008
same,glycan array binding signal (z-score),[17],-0.098
same,glycan array binding signal (z-score),[18],-0.148
same,glycan array binding signal (z-score),[19],-0.184
same,glycan array binding signal (z-score),[20],-0.115
same,glycan array binding signal (z-score),[21],-0.067
same,glycan array binding signal (z-score),[22],-0.081
same,glycan array binding signal (z-score),[23],-0.142
same,glycan array binding signal (z-score),[24],-0.132
same,glycan array binding signal (z-score),Gal(b1-3)GlcNAc6S,-0.128
same,glycan array binding signal (z-score),[25],-0.12
same,glycan array binding signal (z-score),[26],-0.188
same,glycan array binding signal (z-score),[27],-0.073
same,glycan array binding signal (z-score),[28],-0.167
same,glycan array binding signal (z-score),[29],-0.157
same,glycan array binding signal (z-score),[30],-0.038
same,glycan array binding signal (z-score),[31],-0.153
same,glycan array binding signal (z-score),[32],-0.165
same,glycan array binding signal (z-score),[33],-0.148
same,glycan array binding signal (z-score),[34],-0.183
same,glycan array binding signal (z-score),Gal(b1-4)Gal,-0.075
same,glycan array binding signal (z-score),[35],-0.236

# Source: the supplement of paper PMC8728848
